Results from US9439918B2 (priority 2008, dated 2016).
Values after ≈ are worked out from the molar mass of the structure shown.

What was measured:
Type in all cases: cell-based
Details in all cases: broth microdilution
[1] = system: S. pneumoniae 163 Ery-R (MefA)
S. aureus 29213 Ery-S = system: S. aureus 29213 Ery-S
[2] = system: H. influenzae 49247 Ery-S
[3] = system: S. aureus 96:11480 Ery-R (MLSb)
[4] = system: S. pneumoniae 303 Ery-R (ermB)

Structure (SMILES) | Minimum inhibitory concentration, S. pneumoniae 163 Ery-R (MefA) [1] | Minimum inhibitory concentration, S. aureus 29213 Ery-S (S. aureus 29213 Ery-S) | Minimum inhibitory concentration, H. influenzae 49247 Ery-S [2] | Minimum inhibitory concentration, S. aureus 96:11480 Ery-R (MLSb) [3] | Minimum inhibitory concentration, S. pneumoniae 303 Ery-R (ermB) [4]
CCC1OC(=O)C(C)C(=O)C(C)C(OC2OC(C)CC(N(C)C)C2O)C(C)(OC)CC(C)C(=O)C(C)C2N(CCCn3cc(Cn4nnc5ccccc54)nn3)C(=O)OC12C (stereo not shown) [Entry 18a] | 0.5 µg/mL (≈ 0.586 µM) | 1 µg/mL (≈ 1.17 µM) | > 64 µg/mL | 2 µg/mL (≈ 2.34 µM) | 
CCC1OC(=O)C(C)C(=O)C(C)C(OC2OC(C)CC(N(C)C)C2O)C(C)(OC)CC(C)C(=O)C(C)C2N(CCCCn3cc(Cn4nnc5ccccc54)nn3)C(=O)OC12C (stereo not shown) [Entry 18b] | 4 µg/mL (≈ 4.61 µM) | 1 µg/mL (≈ 1.15 µM) | 32 µg/mL (≈ 36.9 µM) | 2 µg/mL (≈ 2.31 µM) | 64 µg/mL (≈ 73.8 µM)
CCC1OC(=O)C(C)C(=O)C(C)C(OC2OC(C)CC(N(C)C)C2O)C(C)(OC)CC(C)C(=O)C(C)C2N(CCCn3cc(COc4c(Cl)cccc4Cl)nn3)C(=O)OC12C (stereo not shown) [Entry 17a] |  | 1 µg/mL (≈ 1.11 µM) | > 64 µg/mL | 1 µg/mL (≈ 1.11 µM) | > 64 µg/mL
CCC1OC(=O)C(C)C(=O)C(C)C(OC2OC(C)CC(N(C)C)C2O)C(C)(OC)CC(C)C(=O)C(C)C2N(CCCCCn3cc(-c4cccc(N)c4)nn3)C(=O)OC12C (stereo not shown) [Entry 16c] |  | ≤ 0.125 µg/mL | 8 µg/mL (≈ 9.51 µM) |  | 0.25 µg/mL (≈ 0.297 µM)
CCC1OC(=O)C(C)C(=O)C(C)C(OC2OC(C)CC(N(C)C)C2O)C(C)(OC)CC(C)C(=O)C(C)C2N(CCCn3cc(-c4ccccc4)nn3)C(=O)OC12C (stereo not shown) [Entry 11a] |  | 1 µg/mL (≈ 1.25 µM) | > 64 µg/mL | 1 µg/mL (≈ 1.25 µM) | 
CCC1OC(=O)C(C)C(=O)C(C)C(OC2OC(C)CC(N(C)C)C2O)C(C)(OC)CC(C)C(=O)C(C)C2N(CCCCn3cc(-c4ccc(Br)cc4)nn3)C(=O)OC12C (stereo not shown) [Entry 12b] |  |  | 8 µg/mL (≈ 8.98 µM) |  | 8 µg/mL (≈ 8.98 µM)
CCC1OC(=O)C(C)C(=O)C(C)C(OC2OC(C)CC(N(C)C)C2O)C(C)(OC)CC(C)C(=O)C(C)C2N(CCCn3cc(-c4ccc(C(F)(F)F)cc4)nn3)C(=O)OC12C (stereo not shown) [Entry 13a] |  | 1 µg/mL (≈ 1.15 µM) | > 64 µg/mL | 2 µg/mL (≈ 2.31 µM) | 16 µg/mL (≈ 18.5 µM)
CCC1OC(=O)C(C)C(=O)C(C)C(OC2OC(C)CC(N(C)C)C2O)C(C)(OC)CC(C)C(=O)C(C)C2N(CCCCCn3cc(-c4ccccn4)nn3)C(=O)OC12C (stereo not shown) [Entry 14c] |  |  | 64 µg/mL (≈ 77.4 µM) |  | 0.25 µg/mL (≈ 0.302 µM)
CCC1OC(=O)C(C)C(=O)C(C)C(OC2OC(C)CC(N(C)C)C2O)C(C)(OC)CC(C)C(=O)C(C)C2N(CCCCCn3cc(-c4ccc(C(F)(F)F)cc4)nn3)C(=O)OC12C (stereo not shown) [Entry 13c] | 0.5 µg/mL (≈ 0.559 µM) | 0.5 µg/mL (≈ 0.559 µM) | 64 µg/mL (≈ 71.6 µM) | 1 µg/mL (≈ 1.12 µM) | 2 µg/mL (≈ 2.24 µM)
CCC1OC(=O)C(C)C(=O)C(C)C(OC2OC(C)CC(N(C)C)C2O)C(C)(OC)CC(C)C(=O)C(C)C2N(CCCn3cc(-c4cccnc4)nn3)C(=O)OC12C (stereo not shown) [Entry 15a] | 1 µg/mL (≈ 1.25 µM) | 2 µg/mL (≈ 2.5 µM) | > 64 µg/mL | 2 µg/mL (≈ 2.5 µM) | > 64 µg/mL
CCC1OC(=O)C(C)C(=O)C(C)C(OC2OC(C)CC(N(C)C)C2O)C(C)(OC)CC(C)C(=O)C(C)C2N(CCCCCn3cc(Cn4nnc5ccccc54)nn3)C(=O)OC12C (stereo not shown) [Entry 18c] |  | ≤ 0.125 µg/mL | 8 µg/mL (≈ 9.08 µM) |  | 
CCC1OC(=O)C(C)C(=O)C(C)C(OC2OC(C)CC(N(C)C)C2O)C(C)(OC)CC(C)C(=O)C(C)C2N(CCCn3cc(-c4ccc(Br)cc4)nn3)C(=O)OC12C (stereo not shown) [Entry 12a] |  | 0.25 µg/mL (≈ 0.285 µM) | 64 µg/mL (≈ 73 µM) | 0.5 µg/mL (≈ 0.57 µM) | 8 µg/mL (≈ 9.12 µM)
